Out of some 48,000 compounds screened, about 450 (0.94%) were called active. Inconclusive results (about 19%) are left out. Calls follow the shape of the dose curve; as a rule, active = well fitted inhibition curve with a large enough effect; inconclusive = small, poorly fitted or top-dose-only effect; inactive = no such curve, though single readings can be large or run the other way. The list shows a part of the results.
Assay: Primary qHTS for Identification of Small Molecule Inhibitors of Huntingtin Promoter Activity; also: nearly all actives have a fitted effect of over 50% in size
Settings: HEK293 HTT promoter firefly luciferase reporter (activity 0% = vehicle and -100% = no light), 24 h; series mostly up to 57.5 µM; activity change, negative = inhibition: at the top concentration
Summary of the method: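 HEK293 cells carrying firefly luciferase reporters were seeded at 2,500 per well in Opti-MEM and cultured for 24 h. They were then treated with compounds at up to 57.5 uM final for 24 h at 37 degrees C before Dual-Glo luminescence readout.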

| Structure (SMILES) | activity change, negative = inhibition |
| --- | --- |
| CCN1CCN(c2oc(/C=C/c3cc(OC)c(OC)c(OC)c3)nc2C#N)CC1 | inactive: -11.8% |
| Cc1cc(Cl)ccc1NC(=O)CCCn1nc(C)c2c(C)n(-c3ccccc3)nc2c1=O | inactive: -23.9% |
| CCc1ccc(C2c3c(oc4cc(C)c(C)cc4c3=O)C(=O)N2c2nc(C)c(C(=O)OC)s2)cc1 (configuration not stated) | inactive: 14.9% |
| CCC1CN(C(=O)Nc2cc(Cl)c(OC)cc2OC)c2ccccc2O1 (configuration not stated) | inactive: -5.31% |
| Cc1cc(C)cc(NC(=O)CSc2nc3sc4c(c3c(=O)[nH]2)CCCC4)c1 | inactive: -13.2% |
| COc1cc(OC)c(C2C(C(=O)Nc3ccccc3)=C(C)Nc3ncnn32)cc1OC (configuration not stated) | inactive: -3.89% |
| COc1ccc(-c2noc(CC(=O)Nc3ccc(C)c(F)c3)n2)cc1 | inactive: 5.56% |
| CSc1ccc(CCNC(=O)c2cc3cc4cc(C)ccc4nc3s2)cc1 | inactive: 27.5% |
| CCc1nn(CC(=O)NCCCc2ccccc2)c(=O)c2cc3ccccc3n12 | inactive: 12% |
| Cc1c(Cl)cccc1NC(=O)Cn1c(=O)n(Cc2nc(-c3ccccc3)no2)c(=O)c2cc3c(cc21)OCO3 | inactive: -4.28% |
| CCCC(=O)Nc1cccc(-c2cn3c(C)csc3n2)c1 | inactive: -6.23% |
| CCc1ccc(CNC(=O)c2cnc3c(C)cccn3c2=O)cc1 | inactive: 9.23% |
| COC(=O)c1sccc1S(=O)(=O)N(CC(=O)Nc1ccccc1)c1ccccc1 | inactive: -10% |
| Cc1ccc(Nc2cc(C)c(C#N)c3nc4ccccc4n23)c(C)c1 | inactive: -13.4% |
| Cc1c(Cl)cccc1NC(=O)C1CCN(c2nc3ccccc3[nH]2)CC1 | inactive: -4.22% |
| CCc1ccc(-c2nc(CS(=O)CC(=O)NCCc3ccc(C)cc3)c(C)o2)cc1 (configuration not stated) | inactive: -26.7% |
| CC(C)c1cnc2c(c1SCC(=O)NC(C)(C)C)c(=O)n(C)c(=O)n2C | inactive: 5.75% |
| CCn1cc2c(n1)-c1c(oc(C(=O)Nc3ccc(Br)cc3F)c1C)CC2 | inactive: 32% |
| O=C(O)CC1c2ccccc2CCN1C(=O)Nc1cc(Cl)ccc1Cl (configuration not stated) | inactive: -21% |
| Cc1ccc(CN(C(=O)c2ccc(OCC(C)C)cc2)c2ccccn2)o1 | inactive: -1.9% |
| CCOC(=O)c1noc2nc(C)n(CC(=O)Nc3cccc(OC)c3)c(=O)c12 | inactive: -5.44% |
| CCCCC1CCC(C(=O)N2CC(=O)Nc3ccc(Br)cc3C2c2ccc(F)cc2)CC1 (configuration not stated) | inactive: -43.3% |
| COC(=O)COc1ccc(-c2nnc(Nc3ccc(O)cc3)c3ccccc23)cc1 | inactive: 0.0215% |
| CCc1ccc(S(=O)(=O)c2nnn3c2nc(N2CCN(c4ccccc4)CC2)c2cc(Cl)ccc23)cc1 | inactive: 4.97% |

| Structure (SMILES) | activity change, negative = inhibition |
| --- | --- |
| Cc1cccc2c1-c1sc(C(=O)Nc3ccc(F)cc3F)cc1CO2 | inactive: -12.2% |
| CCN(CC)C(=O)Cn1c(=O)n(CCCCCC(=O)NCc2ccc3c(c2)OCO3)c(=O)c2sccc21 | inactive: -10.9% |
| O=c1c2sc3ccccc3c2n(Cc2cccc(F)c2)c(=O)n1CCc1ccccc1 | inactive: 43.4% |
| CCC(=O)OCc1cc(=O)n2nc(C3CC3)sc2n1 | inactive: 6.87% |
| Cc1ccc(NC(=O)CN2C(=O)COc3ccc(S(=O)(=O)N4CCCCCC4)cc32)c(C)c1 | inactive: -8.28% |
| Cc1ccc(CNC(=O)C(=O)Nc2c3c(nn2-c2ccc(F)cc2)CSC3)cc1 | inactive: -19.4% |
| Cc1ccc(CNC(=O)c2ccc(N3CCCC3)c(NC(=O)Nc3ccc(C)cc3)c2)cc1 | inactive: -1.9% |
| CCCc1cc(=O)oc2c3c(ccc12)OCN(Cc1ccccc1OC)C3 | inactive: -28.1% |
| CN(C(=O)Cn1nc(Cc2cccnc2)c2ccccc2c1=O)c1cccc(C(F)(F)F)c1 | inactive: -12.7% |
| COC(=O)c1ccccc1NC(=O)[C@H]1O[C@@H]2OC(C)(C)O[C@@H]2[C@H]2OC(C)(C)O[C@H]21 | inactive: -9.07% |
| Cc1cc(C)cc(OCC(=O)Nc2cccc3cccnc23)c1 | inactive: 1.71% |
| CCCCCCC(=O)Nc1ccc2nc3c(=O)n(C)c(=O)n(C)c3nc2c1C | inactive: -8.83% |
| CCCc1cnc2c(c1SCC(=O)NCc1ccc(C)cc1)c(=O)n(C)c(=O)n2C | inactive: -12.4% |
| CC(=O)Nc1cccc(-c2nc(-c3ccccc3)no2)c1 | inactive: 55.6% |
| COc1ccccc1CCNC(=O)Cc1c(C)c2cc(Cl)c(O)cc2oc1=O | inactive: -7.44% |
| CC(C)c1ccc(S(=O)(=O)N2CCN(Cc3cccc(F)c3)CC2)cc1 | inactive: -39% |
| CC(=O)OCC(=O)[C@@]1(O)CCC2C3CCC4=CC(=O)CC[C@]4(C)C3[C@@H](O)C[C@@]21C (some centres not stated) | inactive: 3.23% |
| COc1ccc(C)c2sc(NC(=O)c3ccc(S(=O)(=O)N(C)C)cc3)nc12 | inactive: 1.59% |
| CCOC(=O)C1CCN(C(=O)c2cc3sc(C)cc3n2C)CC1 | inactive: 12.8% |
| Cc1ccc(N(C)C(=O)c2sc3nc4n(c(=O)c3c2C)CCCC4)cc1C | inactive: -23.7% |
| COCCCn1c(=O)c2sccc2n2c(CCCC(=O)NCc3cccc(OC)c3)nnc12 | inactive: -16.3% |
| CN(C)CC[C@@H](c1ccc(Cl)cc1)c1ccccn1 | inactive: 9.99% |
| CCN1C(=O)c2ccccc2S(=O)(=O)c2ccc(C(=O)NCc3ccccc3)cc21 | inactive: -19% |

Source: PubChem BioAssay AID1508623 (National Center for Advancing Translational Sciences (NCATS), 2021)
